In this assay the test system is SARS-CoV-2 virus. Particulars: examples using ginseng (Table 1), non-treated control = 100.

For `C[C@]12C=CC(=O)C=C1CC[C@H]1[C@@H]3C[C@@H](O)[C@](O)(C(=O)CO)[C@@]3(C)C[C@H](O)[C@@]12F` [Comparative Example 7, Triamcinolone], the “Relative virus titer SARS-CoV-2 virus” value is on record as 101 ± 1.9.
For the compound `C[C@@H]1C[C@H]2[C@@H]3CCC4=CC(=O)C=C[C@]4(C)[C@@]3(F)[C@@H](O)C[C@]2(C)[C@@]1(O)C(=O)CO` [Comparative Example 4, Dexamethasone], the “Relative virus titer SARS-CoV-2 virus” value was 101 ± 1.9.
Consider `C[C@]12CCC(=O)C=C1CC[C@@H]1[C@@H]2[C@@H](O)C[C@@]2(C)[C@H]1CC[C@]2(O)C(=O)CO` [Comparative Example 5, Hydrocortisone], for which the “Relative virus titer SARS-CoV-2 virus” value was determined as 102 ± 1.9.
With `C[C@]12C=CC(=O)C=C1CC[C@@H]1[C@@H]2[C@@H](O)C[C@@]2(C)[C@H]1CC[C@]2(O)C(=O)CO` [Comparative Example 6, Prednisolone] the figure was 101 ± 1.9.
